Assay results taken from ChEMBL document CHEMBL1201862, “PubChem BioAssay data set” (2004).
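Interpolation was linear, between the two tested concentrations surrounding the appropriate level; five concentrations were tested over 48 hours in 96-well plates. GI50 = concentration required for 50% inhibition of growth.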 Calls of active or inactive are those of the source. Cut-off read from the data, not from the text of the source: active = GI50 up to about 1.1 µM and inactive = higher.

These compounds were tested on NCI-H322M (assay: NCI tumour cell line growth inhibition, 48 h).

SMILES	GI50
CCN(CC)CCCC(C)Nc1ccnc2cc3ccccc3cc12 (configuration not stated)	inactive: 2.65 µM
Oc1nc2ccccc2c(O)c1Cc1ccccc1	inactive: > 100 µM
CCCCCCCCCCCCCCCCCCOCC1(COP(=O)([O-])OCC[N+](C)(C)C)CCCO1 (configuration not stated)	inactive: 12.9 µM
Cc1ccc(CCCC(=O)O)cc1C	inactive: > 100 µM
COn1cc(C=O)c2ccccc21	inactive: > 82.2 µM
CS(=O)(=O)N(CCC#N)c1ccc(/C=N/NC(=O)CC(=O)Nc2cccc(Cl)c2)cc1	inactive: > 100 µM
c1cnc2c(c1)ccc1cccnc12	inactive: 4.15 µM
O=C(/C=C/c1ccc(OCCCOc2ccc(/C=C/C(=O)c3ccc(Cl)cc3)cc2)cc1)c1ccc(Cl)cc1	inactive: > 100 µM
CC(=O)N1c2ccccc2C23CCN4CC5=CCOC(O)C(C5CC42)C13 (configuration not stated)	inactive: > 100 µM
Cc1cn(CC2=NCC(O)CN2)c(=O)[nH]c1=O (configuration not stated)	inactive: > 100 µM
O=C(/C=C/c1ccccc1Cl)c1ccccc1Cl	inactive: 46.2 µM
CC(=O)Oc1ccc(C2COc3cc(OC(C)=O)c(OC(C)=O)cc3C2)cc1 (configuration not stated)	inactive: 25.8 µM
CC1=C(O)C(=O)C2=C(C1=O)[C@@H]([C@@H](C)C/C=C/C(C)(C)O)CC[C@@H]2C	inactive: 27.3 µM
COCOc1c(C(OCOC)c2cnc(Sc3ccccc3)n2C)ccc(OC)c1OC (configuration not stated)	inactive: > 100 µM
Cc1cn(C2CC(ON3C(=O)c4ccccc4C3=O)C(CO)O2)c(=O)[nH]c1=O (configuration not stated)	inactive: > 10 µM
O=C(CNc1ccc(Cl)cc1Cl)Nn1c(-c2ccccc2)nc2ccccc2c1=O	inactive: 15.7 µM
Cc1ccc(S(=O)(=O)NC(=O)NCCC(=O)O)cc1	inactive: > 100 µM
CCOC(=O)c1nn2c(nc1=O)sc1ccc3ccccc3c12	inactive: > 100 µM
COc1cc(OC)cc(Oc2nc3c(N)cc(C(F)(F)F)cc3nc2-c2ccccc2)c1	inactive: > 100 µM
COc1ccc2nc3cc(Cl)ccc3c(SCC(=O)Nc3ccccc3-c3ccccc3NC(=O)CSc3c4ccc(Cl)cc4nc4ccc(OC)cc34)c2c1	inactive: > 100 µM
CC(=O)OC1[C@H](n2ccnc2)C[C@H]2[C@@H]3CC=C4CC(N5CCCC5)CC[C@]4(C)[C@H]3CC[C@]12C (some centres not stated)	inactive: > 100 µM
CCOC(=O)c1cc(C2(O)CCN(Cc3ccccc3)C2=O)c(-c2cc(C)no2)[nH]1 (configuration not stated)	inactive: > 100 µM
CC1(C)N=C(N)N=C(N)N1CCCCc1ccccc1	active: 0.374 µM

SMILES	GI50
COc1ccc(NC(=O)CC(=O)N2N=C(N(CCC#N)c3cccc(C)c3)CC2c2ccccc2)cc1 (configuration not stated)	inactive: > 100 µM
O=C1C=C2CC[C@H]3[C@@H]4CC[C@H](OC(=O)c5cccc6cc7ccccc7nc56)[C@H]4CC[C@@H]3[C@H]2CC1	inactive: > 100 µM
CC(=O)NC1C(OCc2ccccc2)OC(CO)C(O)C1OCC(=O)NC(C)C(=O)NC(CCC(=O)NCCCCNc1ccc([N+](=O)[O-])c2[nH]c3ccccc3c(=O)c12)C(N)=O (configuration not stated)	inactive: 61.2 µM
COc1ncc(C=C(C#N)C#N)c(OC)n1	inactive: > 100 µM
CC[C@@]1(O)C(=O)OCc2c1cc1n(c2=O)Cc2c-1nc1ccccc1c2/C=N\NC(=O)C[n+]1ccccc1	inactive: 5.52 µM
CC(C)c1ccc(C2NC(S)=NC3=C2c2ccccc2C3=O)cc1 (configuration not stated)	inactive: 28.1 µM
O=c1c2cc([N+](=O)[O-])ccc2n2n1Cc1ccccc1CC2	inactive: > 100 µM
c1cc(-c2csc(-c3ccsc3)c2)cs1	inactive: > 100 µM
O=C(CN1CCN(c2ccccc2)CC1)c1ccc2[nH]c(=O)oc2c1	inactive: > 100 µM
CCOC(=O)C1=C(C)OC2(O)C=CC(O)=C3C(=O)N(c4ccccc4)C(=O)C312 (configuration not stated)	inactive: > 100 µM
CC(=O)c1csc2c1C(=O)c1scc(C(C)=O)c1C2=O	inactive: 1.45 µM
O=C1NC(=O)C2C(=O)NC(=O)C1C2c1c(Cl)cccc1Cl (configuration not stated)	inactive: > 100 µM
COc1cc2c(cc1OC)C1Cc3ccccc3CN1CCC2 (configuration not stated)	inactive: > 100 µM
Cc1ccc(NC(=O)/C(=N/NC(=O)C[N+](C)(C)C)c2nc3ccccc3nc2O)cc1	inactive: > 100 µM
O=C1Nc2ccccc2/C1=C\c1c(Cl)nc2n1CCS2	inactive: 34.1 µM
CC(C)OP(=O)(OC(C)C)/C(N)=N/Nc1ccc([N+](=O)[O-])cc1	inactive: 80.7 µM
N#CCCN(c1ccc(C=O)cc1)S(=O)(=O)c1ccccc1	inactive: > 100 µM
c1ccc(COC[C@H]2C3OCC([C@H](OCc4ccccc4)[C@H]3OCc3ccccc3)N2Cc2ccccc2)cc1 (some centres not stated)	inactive: > 50.8 µM
COc1ccc(C2c3cc(OC)c(OC)cc3C(Cc3ccc([N+](=O)[O-])cc3)C2c2ccc([N+](=O)[O-])cc2)cc1OC (configuration not stated)	inactive: > 100 µM
O=c1/c(=C/c2ccc(-c3ccc(Cl)cc3Cl)o2)sc2n1[C@@H](c1ccc3c(c1)OCO3)C=C(c1cc(F)c(Cl)cc1Cl)N=2	inactive: 19.3 µM
CCc1cc2c(c3c1CCC3=O)CC1(Cc3ccc(C)cc3C1)C2 (configuration not stated)	inactive: 45.9 µM
COC(=O)C1(Cc2ccc(C)cc2)Cc2c(C)cccc2C1=O (configuration not stated)	inactive: 45.3 µM
COC(=O)C1(C(=O)OC)CC2c3c(c4ccccc4n3C)CC(C1=O)N2Cc1ccccc1 (configuration not stated)	inactive: > 100 µM

SMILES	GI50
CC(=O)O[C@@]12[C@@H]3O[C@@]4(O)C[C@]5(C)[C@H]6C[C@@](C(C)C)(O[C@H]5c5ccoc5)O[C@H]1[C@]6(C4)O[C@]2(O)C(C)=CC3(C)C	inactive: > 100 µM
O=C1NC(N2CCOCC2)=N/C1=C\c1ccco1	inactive: > 100 µM
O=C(CCc1n[nH]c(=S)o1)Nc1cc(Cl)ccc1Cl	inactive: > 100 µM
O=[N+]([O-])c1ccc(-c2nn3c(C45CC6CC(CC(C6)C4)C5)nnc3s2)c(Cl)c1	inactive: > 100 µM
c1cc2ccc3cc4ncccc4c4ccc(c1)c2c34	inactive: 12.4 µM
c1cc(N(CCn2cccn2)CCn2cccn2)cc(N(CCn2cccn2)CCn2cccn2)c1	inactive: > 100 µM
C(=C/c1ccc2nc(-c3ccc(/C=C/C=N/NC4=NCCCN4)cc3)cn2c1)/C=N/NC1=NCCCN1	inactive: 15 µM
COC1=N[C@H](C(C)C)C(OC)=N[C@H]1Cc1ccc(C[C@@H]2N=C(OC)[C@@H](C(C)C)N=C2OC)s1	inactive: 44.8 µM
COC(=O)C(=O)C(C#N)c1nc2ccccc2s1 (configuration not stated)	inactive: > 100 µM
O=C1/C(=C/c2cccc([N+](=O)[O-])c2)N=C(c2ccccc2)N1c1ccc2c(c1)Sc1cc(N3C(=O)/C(=C/c4cccc([N+](=O)[O-])c4)N=C3c3ccccc3)ccc1N2	inactive: 19.3 µM
CN(N=O)C(=O)N(N)CCCCC(NC(=O)OCc1ccccc1)C(=O)OCc1ccccc1 (configuration not stated)	inactive: > 100 µM
CC1(C)OC2CN(C(=O)OCc3ccccc3)C(CO)C2O1 (configuration not stated)	inactive: > 100 µM
Cc1ccc(/C=C2\CCCC(CN(C)C)C2=O)cc1 (configuration not stated)	inactive: 15.1 µM
O=c1c2ccccc2c2nc3ccccc3nc2n1C1CCCCC1	inactive: > 100 µM
COc1cc2c(cc1C1=NC(C)(C)CO1)OCO2	inactive: > 100 µM
CN(C)CCCNc1nnc(NCCCN(C)C)c2c(=O)c3sccc3[nH]c12	inactive: 8.91 µM
CCCSS[C@H]1NC(=O)[C@H]1NC(=O)COc1ccccc1	inactive: > 100 µM
O=C(O)C(C1NCCS1)N1Cc2ccccc2C1 (configuration not stated)	inactive: > 100 µM
c1ccc2c(c1)Sc1nccc3ccnc-2c13	inactive: 44.6 µM
Nc1ncnc2c1ncn2C1OC(CO)=CC1O (configuration not stated)	inactive: > 37.5 µM
O=C1O/C(=C(/Br)c2ccc(Cl)c(Cl)c2)c2ccccc21	inactive: > 10 µM
Cc1csc(-n2nc(C)cc2C)n1	inactive: > 100 µM
CN1CN(c2ccccc2)C2(CCN(C3Nc4ccccc4O3)CC2)C1=O (configuration not stated)	inactive: 29.4 µM

SMILES	GI50
Nc1c(F)c(F)c2c(c1F)N(CCCCCl)c1ccccc1S2	inactive: > 100 µM
CC(C)(C)C(=O)C(Cc1ccccc1)C(=O)C(C)(C)C	inactive: > 100 µM
O=c1oc2ccccc2c(Nc2ccc3c(c2)Sc2ccccc2O3)c1[N+](=O)[O-]	inactive: 22.2 µM
O=C(NCc1ccccc1)c1cnc(Cl)cn1	inactive: 28.1 µM
Cc1c(-c2nc(N)c(C#N)c(N)c2C#N)c(=O)oc2ccccc12	inactive: > 100 µM
O=C1C2C=CC(C2)C(c2ccc(O)cc2)N1O (configuration not stated)	inactive: > 100 µM
Cc1nc2ccc(F)cc2c2c1CCO2	inactive: > 100 µM
O=C(NC(=S)Nc1ccc2c(c1)Sc1ccccc1O2)c1ccccc1	inactive: 40.8 µM
Nc1ccc(C(c2ccccc2)(c2ccccc2)c2ccccc2)cc1	inactive: 69.7 µM
O=C(Nc1ccc(Cl)cc1Cl)c1cc2nc3ccccc3c(=O)n2c2ccccc12	inactive: > 10 µM
CN(C)c1cccc2c1C(=O)C=CC21c2ccc(N(C)C)c3c(N(C)C)ccc(c23)C(c2ccccc2)C1c1ccccc1 (configuration not stated)	inactive: 19.1 µM
COC(=O)/C=C/c1ccccc1N=[S@](C)(=O)c1ccc(C)cc1	inactive: 36.2 µM
CC1OC(=O)c2ccccc2NC1=O (configuration not stated)	inactive: > 100 µM
COc1cc(C2c3cc4c(cc3[C@@H](Nc3ccc(N(C)C)cc3)[C@H]3COC(=O)C23)OCO4)cc(OC)c1O (some centres not stated)	inactive: 5.96 µM
CCOc1ccc2[nH]c3c(C)c4ccncc4c(C)c3c2c1	inactive: 1.17 µM
COc1ccccc1-c1cc(O)c2cc(C)cnc2n1	inactive: 51.9 µM
CCN(CC)CCOC(=O)/C(=C/c1ccc(OC)cc1)c1cc(OC)c(OC)c(OC)c1	inactive: 9.06 µM
CCC1c2[nH]c3ccccc3c2C[C@H]2C(=O)NC(Cc3ccccc3)C(=O)N12 (some centres not stated)	inactive: 36.2 µM
O=C(O)COc1cc(-c2ccccc2F)nc2cc3c(cc12)OCO3	inactive: > 100 µM
Cc1c2ccncc2c(C)c2c1[nH]c1ccc(OC(C)(C)C)cc12	inactive: 2.38 µM
Oc1cc(-c2cccc(F)c2)nc2cc3c(cc12)OCO3	active: 0.118 µM
NS(=O)(=O)c1ccc(NS(=O)(=O)c2ccc(NC(=O)N(c3ccccc3)c3ccccc3)cc2)cc1	inactive: > 100 µM
CC(C)=CCOc1cc(NC(=S)c2ccsc2C)ccc1Cl	inactive: 49.4 µM
